The supplement of paper PMC3334620
The full ranking holds about 33,000 sequences; the median of “E-score (-0.5 to 0.5)” is about -0.04, and the highest 2% start at about 0.36. The list shows a part of the results.

molecular target: T1, Hmlalpha2 (UniProt P0CY09); assay: PBM E-score (8-mer binding enrichment) (E-score (-0.5 to 0.5)); higher = stronger / more preferred TF binding; most listed sequences are background and not binding sites; conditions: protein concentration: 200 nM; construct: GST-full length
T1 sequence: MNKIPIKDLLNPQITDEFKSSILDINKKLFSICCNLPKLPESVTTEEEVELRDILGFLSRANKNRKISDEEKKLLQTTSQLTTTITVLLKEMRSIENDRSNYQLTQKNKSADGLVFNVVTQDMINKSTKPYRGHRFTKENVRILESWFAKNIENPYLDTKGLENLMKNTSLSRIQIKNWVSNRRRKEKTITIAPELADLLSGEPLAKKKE
Summary of the method: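 Bound GST-tagged yeast transcription factors, applied at about 100-200 nM to double-stranded universal all-10-mer Agilent arrays, were detected with fluorescent anti-GST. Scans were normalised with masliner. A modified Wilcoxon-Mann-Whitney statistic, the E-score, was assigned to each ungapped eight-base word pooled with its reverse complement by the Universal PBM Analysis Suite.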

Sequence	PBM E-score
GGATTTAA	0.00503
ACCGGAAA	-0.227
CTGTGATC	-0.0984
CCGGAACC	-0.298
CAGAGCAA	-0.0412
CATGACTC	-0.0327
CTGGTGCA	-0.257
GATTATAC	0.0261
ATCCCCGC	-0.224
AAGCCAGG	-0.0641
TGCTGCAA	0.106
CCGACCAG	-0.132
CTACTCGC	-0.12
ATAGGTGA	-0.14
CTAGTGTA	0.215
AAAAACCC	-0.0194
TCGGCGCA	0.0292
GCAGCTGC	-0.173
GATGCTCC	-0.186
CCTAGAGA	-0.38
CCTACGAG	-0.021
AGATGCTG	-0.141
GCGTGCCC	-0.208
GAAAGGTA	0.00017
CTATCAAA	-0.113

Sequence	PBM E-score
CCCCGAGC	-0.222
CTCCGGGC	-0.289
TCAAGCCA	-0.0161
CACCTGGA	0.0519
TCTTGTAA	0.439
ACGGAAGG	-0.108
CTCGGTTA	0.0333
CCGATTAG	-0.205
AACATAAC	0.403
ATCCTGGG	-0.0481
CCATTTAG	-0.169
CCACCCTA	-0.285
GGGCGCCA	-0.212
CCATTTCG	-0.223
GACTCGGA	-0.331
CGAAAGTA	-0.0274
CTTACTTC	0.029
GGTCTGAC	-0.149
CTGTCCAA	-0.0758
CCTAGTGA	-0.238
ATTCAGAC	0.0682
GGGCATAC	-0.234
CGTTTTTA	0.253
CTAAAGGC	-0.151
CTCTGTCA	0.0728

Sequence	PBM E-score
CTTTATAA	0.138
ACTCGACA	0.203
ACTGGTAT	-0.094
ACCGGGTC	-0.0576
ACAATTGC	-0.0822
ACATTTAC	0.348
CGGCGTAG	-0.145
CTACGATC	0.0828
ACGCTCAT	0.11
CGCTACGC	-0.0548
AAAGGGAC	-0.2
ATTTCGGG	-0.134
GGTCTGCA	-0.164
TAAGAAAA	0.0949
CGTTCCAA	0.106
GGTCCCCA	-0.321
GTTGAACA	0.217
AGCCCTCA	-0.17
CCACAAAC	0.011
GCCCGTAC	-0.197
AAACTAGG	-0.0246
CTCAAAAA	-0.0777
CAGATGCG	-0.119
TTCGGCAA	0.108
GTTTCATA	-0.152

Sequence	PBM E-score
AACTTCGG	-0.138
ATTTCAGA	0.0529
CGCAACGA	0.23
ATGATCAC	-0.0124
GGTCATTA	0.0766
AACATATT	0.272
AAACCTAC	0.125
ACCCGCAG	0.0777
ACGCCGCT	0.0209
CACCGTGA	-0.121
CATAGTCC	-0.0675
TAATTTAA	0.233
GATCTGCA	-0.0388
AGAACCAT	0.116
ACGCAAGC	0.0935
TCTTCTAA	-0.0106
AATACCTC	0.15
CTTCTCTA	-0.088
AGCAGTTA	0.00423
AAGCCGCC	-0.258
ACTAAGGG	-0.245
AGAGTACC	0.012
CCACTGCC	-0.244
CTCAAGAA	-0.0411
GGATGAAA	-0.212

Sequence	PBM E-score
CATGGAAC	-0.0616
CTTCTAGC	-0.197
GCATTAAA	0.23
ATAACGCG	0.353
AACGCAAA	0.158
CGGCGTAC	0.0928
ACTACTCG	0.133
AGATGGCC	-0.17
GATAGCGC	0.102
CCGAAGGC	-0.25
ACAAAAAT	0.144
AACACCAT	0.126
ATCTTAGC	0.0548
AGAAGTGA	-0.0712
TCGACAGA	-0.0778
CAATTCTG	-0.209
TGCTAAAA	0.111
CGCGACCC	-0.0799
GCTGAATA	0.0885
AATGGTCA	0.0279
AAAAAAGC	0.0656
CCGATGGC	-0.259
CACTATCC	-0.218
GATCGGCA	-0.126
AGCCCTTG	-0.205

Sequence	PBM E-score
GATTGCTA	-0.0386
GGGAGAAC	-0.204
TAGATCGA	0.0396
TCAGTTCA	0.00802
ATTGTTTG	0.17
AACCCTGT	0.16
GTGTGAAC	0.271
ATGGGCAA	-0.108
TGGGCACA	-0.186
AAGGTAAC	0.0918
ACTTGCAA	0.162
ACGCATTA	0.334
AGGATACT	-0.0484
ACCAGCAT	0.0476
AGAATAGA	-0.00525
ATTTAGGG	-0.126
ACATCAGG	0.0683
CCGTCACC	-0.371
AGAGGGCT	-0.262
ATGCCATA	-0.0625
AACGTTCT	0.122
ACGGAAGT	-0.133
CGGATGTC	-0.279
CAGAGTTA	0.0305
CGACCGTA	-0.151

Sequence	PBM E-score
CCACCCGA	-0.216
ACGATTGA	0.143
GGGTTCCA	-0.261
ACTGCAGG	-0.11
GAGCCCTC	-0.283
CTTCAAGC	-0.147
GTGCTATA	0.147
AGGCATAT	0.00171
ATAGGAAC	-0.0625
CCGGCCCG	-0.144
GGTATACA	0.254
AAACAGAG	0.00132
ATACCTTG	0.0608
AGAATCTC	-0.015
TACGTTAA	0.325
CGTACCCA	-0.157
GCTCATTA	-0.0971
GTTGGAAA	-0.0664
ATTACGGC	0.0883
CATTTGCG	0.143
CTAGCCAA	-0.0547
AGTGCGAA	-0.0957
